{
  "source": "the supplement of paper PMC11417369",
  "note": "± gives the standard deviation of the averaged measurements. Some of the results follow.",
  "data": [
    {"test_system": "PfAP2-I AP2 domain 3 (GST-tagged)", "experiment": "gcPBM binding intensity (ln(normalized median fluorescence intensity)); higher = stronger DNA binding", "outline": "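Binding of GST-tagged P. falciparum DNA-binding domains, expressed in E. coli and used at about 25 μg on average, was carried out for 1 h in 1× PBS containing 1% milk, 0.2 mg/ml BSA, 0.5% salmon testes DNA and 0.03% Triton X-100. The target was an Agilent 4 × 180k array of primer-extended double-stranded 36-bp intergenic genomic probes plus negative controls, read with Alexa488 anti-GST antibody at 488 nm. Binding intensity is the highest Masliner-normalised natural-log median intensity across replicate spots of either probe orientation.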", "values": [
      {"sequence": "AAATATATATATATATATATAAATATATACATATAT [TGCATGCA_negctrl_site517]", "gcPBM binding intensity (ln)": "7.54 ± 0.59"},
      {"sequence": "TTATGGTGCAACATTATGCACACCGTTAAATAACTA [CACACA_site3846]", "gcPBM binding intensity (ln)": "11.1 ± 0.52"},
      {"sequence": "ATTTATTTTGTTGTTGTTTTTATTTGATTGTTTTAT [CACACA_negctrl_site1275]", "gcPBM binding intensity (ln)": "7.67 ± 0.48"},
      {"sequence": "GTTTGAATGGCGCACTGTACACATATATACATATAG [XGTACX_site8619]", "gcPBM binding intensity (ln)": "8.95 ± 0.25"},
      {"sequence": "ACAAAATTATGTAGATGTACAGACATAGAAAGAGAT [XGTACX_site3096]", "gcPBM binding intensity (ln)": "8.42 ± 0.89"},
      {"sequence": "ATTTATGAAAAATGTACACACATCAAATGCTTATAT [CACACA_site4068]", "gcPBM binding intensity (ln)": "7.71 ± 0.69"},
      {"sequence": "CGTTTTCTATATCATTGTACATATTCATGTGTAAAT [XGTACX_site2741]", "gcPBM binding intensity (ln)": "7.77 ± 0.51"},
      {"sequence": "AACAGACGAAGACACACACACATATATATATATATA [CACACA_site1020]", "gcPBM binding intensity (ln)": "9.43 ± 0.4"},
      {"sequence": "TAAAAGTTCACCTGTACACACATATAAATATGTACA [CACACA_site6901]", "gcPBM binding intensity (ln)": "7.81 ± 0.64"},
      {"sequence": "ATTAATAAATTCAATTGTACTTGTTTATACATAAAA [XGTACX_site3733]", "gcPBM binding intensity (ln)": "7.64 ± 0.29"},
      {"sequence": "AAAATTAACCGTAACACACACACATATAAATATGTA [CACACA_site7791]", "gcPBM binding intensity (ln)": "8 ± 0.59"},
      {"sequence": "TTGTTTAAGTCACGAACACACATATATCATCAATTT [CACACA_site986]", "gcPBM binding intensity (ln)": "7.67 ± 0.58"},
      {"sequence": "TTATTTTATTTTTGTGCACACTGATAAATTGAAAAG [CACACA_site2949]", "gcPBM binding intensity (ln)": "10.8 ± 0.22"},
      {"sequence": "TATATTCATAATATTACACACGTTCATTTATTTTAA [CACACA_site2031]", "gcPBM binding intensity (ln)": "7.72 ± 0.58"},
      {"sequence": "TATGGTTTTAAAAAATGTACGCAAGTGCGTTAATTT [XGTACX_site3945]", "gcPBM binding intensity (ln)": "11.2 ± 0.93"},
      {"sequence": "GAGTGAAATATGCAAACACACACGAGAAAAATGTAT [CACACA_site3196]", "gcPBM binding intensity (ln)": "8.09 ± 0.85"},
      {"sequence": "TTATATGCATAAAAAGGTACACATATATAAATAAAT [XGTACX_site6894]", "gcPBM binding intensity (ln)": "8.23 ± 0.4"},
      {"sequence": "AACAACCAAACGCACACACACAAAAAAAAAAATATA [CACACA_site6326]", "gcPBM binding intensity (ln)": "8.8 ± 0.092"},
      {"sequence": "TTTGTGTAGGTGTGTAGTACATATAACTTATAACAT [XGTACX_site7885]", "gcPBM binding intensity (ln)": "8.38 ± 0.5"},
      {"sequence": "TAATAAAATGTACACGCATGCAATAGAATATAAAGT [TGCATGCA_site905]", "gcPBM binding intensity (ln)": "8.59 ± 0.85"},
      {"sequence": "ACATTTAAAATTTATGCATGTGGTGTTTTGTATATA [TGCATGCA_site534]", "gcPBM binding intensity (ln)": "8.01 ± 0.78"},
      {"sequence": "ATATTTATATATTGCACACAAAAAAAAAAAAAAATC [CACACA_site1629]", "gcPBM binding intensity (ln)": "10.4 ± 0.35"},
      {"sequence": "TATATATATATGTAATGTACATAAATTTTATACCTT [XGTACX_site6991]", "gcPBM binding intensity (ln)": "9.27 ± 0.53"},
      {"sequence": "CAGTAGTATATACTATGTACATATTTATATTATATT [XGTACX_site4964]", "gcPBM binding intensity (ln)": "7.6 ± 0.31"}
    ]}
  ]
}
